This passage reports viability index results from the supplement of paper PMC4723716.

SMILES strings stand for the structures. ± gives the uncertainty stated by the source. The full ranking holds about 9,900 compounds; the median of “viability index relative to DMSO control” is about 1, and the lowest 2% start at about 0.85. The list shows a part of the results.

For the assay, the system named is Plasmodium falciparum NF54 stage V gametocytes. Briefly: viability index relative to DMSO control (fraction); higher = less gametocyte killing. The note with it: 2.5 µM, library set: Broad Institute DOS, incubation time: 72 h. On the procedure:
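Broad DOS informer set and blood-stage-active DOS compounds screened in duplicate at 2.5 µM against P. falciparum NF54 stage V gametocytes with the serum-free one-step SaLSSA (1536-well): 72 h at 37 °C under low oxygen, then saponin lysis and MitoTracker Red CMXRos staining, with high-content imaging. Viability index = viable-object count divided by the plate mean of DMSO wells (0 = killed, about 1 = inactive).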
The molecule `O=C(O)[C@H]1[C@H](CO)[C@H]2Cn3c(ccc(-c4cccnc4)c3=O)[C@@H]1N2C(=O)Nc1cc(F)ccc1F` displayed a viability index of 1.08 ± 0.059.
As to `C[C@@H]1CN([C@H](C)CO)C(=O)CCCn2nncc2CO[C@@H]1CN(C)C(=O)Oc1cccc2ccccc12`, the viability index was 1.02 ± 0.038.
Molecule `CCC(=O)N1[C@@H]2Cn3c(ccc(C4=CCCC4)c3=O)[C@H]1[C@@H](C(=O)OC)[C@@H]2CO` displayed a viability index of 1.0457 ± 3.7e-05.
The same measure for `COC(=O)[C@H]1[C@H](CO)[C@H]2Cn3c(ccc(-c4cccc(C(=O)N(C)C)c4)c3=O)[C@@H]1N2C(=O)NC(C)C`: 1.05 ± 0.047; for `c1cncc(-c2ccc([C@@H]3[C@H]4CNC[C@@H]3N4CC3CC3)cc2)c1`: 1.03 ± 0.026; for `C[C@@H]1CN([C@@H](C)CO)C(=O)CCCn2nncc2CO[C@H]1CN(C)C(=O)Oc1cccc2ccccc12`: 0.953 ± 0.019.
`O=C(O)C[C@@H]1CC[C@H]2NC[C@@H](O)COC[C@@H]2O1` came in with a viability index of 1.13 ± 0.034.
In turn, `COC(=O)[C@@H]1[C@@H](CO)[C@@H]2Cn3c(ccc(-c4cccc(F)c4)c3=O)[C@H]1N2Cc1ccncc1` displayed a viability index of 1.064 ± 0.0094.
The same measure for `OC[C@@H]1[C@@H]2c3ccccc3NC[C@@H]2N1Cc1cccnc1`: 1.03 ± 0.021.
`C/C=C/c1ccc2n(c1=O)C[C@@H]1[C@@H](CO)[C@H](C(=O)OC)[C@H]2N1S(=O)(=O)c1ccccc1C.C/C=C\c1ccc2n(c1=O)C[C@@H]1[C@@H](CO)[C@H](C(=O)OC)[C@H]2N1S(=O)(=O)c1ccccc1C` came in with a viability index of 0.989 ± 0.091.
The same measure for `C/C=C/c1ccc([C@@H]2[C@H](CO)N3CCCCN(C(=O)Cc4cccnc4)C[C@@H]23)cc1`: 0.952 ± 0.0099; for `CN1[C@@H](CO)[C@@H]2c3ccccc3NC[C@@H]21`: 0.95 ± 0.073; for `COC(=O)[C@H]1[C@H](CO)[C@H]2Cn3c(cccc3=O)[C@H]2N1CC1CC1`: 0.967 ± 0.037.
The molecule `COC(=O)[C@@H]1[C@@H](CO)[C@@H]2Cn3c(cccc3=O)[C@@H]2N1CC1CC1` returned a viability index of 0.972 ± 0.034.
The same measure for `O=C([C@H]1N[C@H]2c3cccc(=O)n3C[C@H]2[C@@H]1CO)N1CCCCC1`: 1.077 ± 0.0027; for `COc1cccc(-c2ccc([C@@H]3[C@H](CO)N4CCCCN(C(=O)Cc5ccncc5)C[C@@H]34)cc2)c1`: 1.019 ± 0.004.
The same measure for `COC(=O)[C@H]1[C@H](CO)[C@H]2Cn3c(ccc(-c4cccc(F)c4)c3=O)[C@@H]1N2Cc1ccncc1`: 1.04 ± 0.058; for `C[C@H]1CN([C@@H](C)CO)C(=O)CCCn2cc(nn2)CO[C@@H]1CN(C)C(=O)Oc1ccc2ccccc2c1`: 1.08 ± 0.021.
In turn, `COc1cccc(-c2ccc([C@@H]3[C@@H](CO)N4CCCCN(C(=O)Cc5ccncc5)C[C@@H]34)cc2)c1` came in with a viability index of 0.865 ± 0.051.
The same measure for `C[C@H](CO)N1C[C@H](C)[C@@H](CN(C)C(=O)Oc2cccc3ccccc23)OCc2cnnn2CCCC1=O`: 0.943 ± 0.044.
The same measure for `C/C=C/c1ccc([C@@H]2[C@@H]3CN(Cc4ccccn4)C[C@H]2N3)cc1`: 1.09 ± 0.061; for `C/C=C/c1ccc([C@@H]2[C@H]3CNC[C@@H]2N3Cc2ccccn2)cc1`: 0.9915 ± 0.0027; for `O=C1CNC[C@@H]2[C@H](c3ccc(Br)cc3)[C@@H](CO)N12`: 1.0696 ± 0.00028.
The same measure for `C/C=C/c1ccc([C@H]2[C@@H]3CN(C(=O)C4CCOCC4)C[C@H]2N3)cc1`: 1.1 ± 0.058; for `O=C1CNC[C@H]2[C@H](c3ccc(Br)cc3)[C@H](CO)N12`: 1.05 ± 0.023.
Consider `OC[C@@H]1[C@H]2c3ccccc3NC[C@H]2N1Cc1cccnc1`, for which the viability index came to 0.984 ± 0.058.
The same measure for `C[C@@H]1CN([C@@H](C)CO)C(=O)CCCn2cc(nn2)CO[C@@H]1CN(C)C(=O)Oc1ccc2ccccc2c1`: 1.05 ± 0.019; for `CN1c2ccc(Br)cc2[C@@H]2NCC[C@@H]2[C@@H]1CO`: 1 ± 0.045.
The molecule `C/C=C/c1ccc([C@@H]2[C@H]3CN(C(=O)Cc4cccnc4)CCCCN3[C@H]2CO)cc1` showed a viability index of 1.12 ± 0.03.
The same measure for `C/C=C/c1ccc([C@@H]2[C@@H](CO)N3CCCCN(C(=O)Cc4cccnc4)C[C@H]23)cc1`: 1.08 ± 0.098; for `O=C(Cc1ccncc1)N1CCCCN2[C@@H](CO)[C@H](c3ccc(C#Cc4ccccc4F)cc3)[C@@H]2C1`: 0.84 ± 0.22.
Turning to `OC[C@H]1[C@H]2c3ccccc3NC[C@H]2N1Cc1cccnc1`, the viability index was determined as 0.965 ± 0.065.
`CCCNC(=O)N1[C@@H]2c3ccc(-c4ccccc4OC)c(=O)n3C[C@H]1[C@H](CO)[C@H]2C(=O)OC` displayed a viability index of 1.03 ± 0.025.
The same measure for `COc1ccccc1CN1[C@H](CO)[C@@H](c2ccccc2)C12CN(C(=O)Cc1ccccc1)C2`: 0.992 ± 0.079.
Take `CN1[C@@H]2CNc3ccccc3[C@@H]2[C@@H]1CO`: the viability index came to 1.02 ± 0.17.
As to `CN(C)CC#Cc1ccc([C@H]2[C@@H](CO)N3CCCCN(C(=O)Cc4ccccn4)C[C@H]23)cc1`, the viability index was found to be 0.944 ± 0.047.
`O=C(O)C[C@@H]1CC[C@H]2NC[C@H](O)COC[C@@H]2O1` came in with a viability index of 1.02 ± 0.11.
`O=C1CNC[C@H]2[C@@H](c3ccc(Br)cc3)[C@H](CO)N12` displayed a viability index of 0.837 ± 0.14.
The same measure for `C/C=C/c1ccc([C@@H]2[C@@H](CO)N3CCCCN(C(=O)Cc4cccnc4)C[C@@H]23)cc1`: 1 ± 0.029; for `COc1cccc(-c2ccc([C@@H]3[C@@H](CO)N4CCCCN(C(=O)Cc5ccncc5)C[C@H]34)cc2)c1`: 0.9892 ± 0.0031.
The same measure for `COC(=O)[C@@H]1[C@@H](CO)[C@@H]2Cn3c(cccc3=O)[C@H]1N2CCc1ccccc1`: 1.04 ± 0.011; for `C[C@H]1CN([C@@H](C)CO)C(=O)CCCn2nncc2CO[C@H]1CN(C)C(=O)Oc1cccc2ccccc12`: 1.08 ± 0.018.
The same measure for `O=C(O)[C@H]1[C@H](CO)[C@H]2Cn3c(ccc(C4=CCCCC4)c3=O)[C@@H]1N2C(=O)Cc1ccccn1`: 1.01 ± 0.0059; for `COC(=O)[C@H]1[C@H](CO)[C@H]2Cn3c(cccc3=O)[C@@H]1N2CCc1ccccc1`: 1.06 ± 0.071.
On to `CN1[C@H](CO)[C@H]2c3ccccc3NC[C@H]21`, for which the viability index came to 1.05 ± 0.098.
The same measure for `C/C=C/c1ccc([C@H]2[C@H]3CNC[C@@H]2N3Cc2ccccn2)cc1`: 1.07 ± 0.017; for `COc1cccc(-c2ccc([C@@H]3[C@H]4CN(C(=O)Cc5ccncc5)CCCCN4[C@H]3CO)cc2)c1`: 0.936 ± 0.055.
On to `COc1cccc(-c2ccc([C@H]3[C@H]4CN(C(=O)Cc5ccncc5)CCCCN4[C@H]3CO)cc2)c1`, for which the viability index was found to be 1.01 ± 0.07.
In the case of `OC[C@@H]1Nc2ccc(C#Cc3cccnc3)cc2[C@H]2NCC[C@@H]12`, the viability index is 1.065 ± 0.006.
Turning to `O=C(O)[C@@H]1[C@@H](CO)[C@@H]2Cn3c(ccc(C4=CCCCC4)c3=O)[C@H]1N2C(=O)Cc1ccccn1`, the viability index amounted to 1.03 ± 0.13.
The same measure for `C[C@H]1CN([C@@H](C)CO)C(=O)CCCn2cc(nn2)CO[C@H]1CN(C)C(=O)Oc1ccc2ccccc2c1`: 1.04 ± 0.036.
`O=C(Cc1ccncc1)N1CCCCN2[C@H](C1)[C@@H](c1ccc(C#Cc3ccccc3F)cc1)[C@@H]2CO`: the viability index turned out to be 0.971 ± 0.021.
The same measure for `O=C(Cc1ccccc1)N1CC2(C1)[C@H](c1ccccc1)[C@@H](CO)N2Cc1cccc(Cl)c1`: 1.14 ± 0.029; for `C/C=C/c1ccc2n(c1=O)C[C@H]1[C@H](CO)[C@@H](C(=O)OC)[C@@H]2N1S(=O)(=O)c1ccccc1C.C/C=C\c1ccc2n(c1=O)C[C@H]1[C@H](CO)[C@@H](C(=O)OC)[C@@H]2N1S(=O)(=O)c1ccccc1C`: 1.07 ± 0.013.
Regarding `C[C@@H]1CN([C@H](C)CO)C(=O)CCCn2nncc2CO[C@H]1CN(C)C(=O)Oc1cccc2ccccc12`, the viability index is 1.084 ± 0.0053.
The same measure for `COc1cccc(-c2ccc([C@H]3[C@@H](CO)N4CCCCN(C(=O)Cc5ccncc5)C[C@H]34)cc2)c1`: 1.06 ± 0.046; for `O=C(Cc1ccncc1)N1CCCCN2[C@H](C1)[C@H](c1ccc(C#Cc3ccccc3F)cc1)[C@@H]2CO`: 0.923 ± 0.069; for `OC[C@H]1Nc2ccc(C#Cc3cccnc3)cc2[C@H]2NCC[C@H]21`: 1.06 ± 0.021.
The same measure for `COc1cccc(-c2ccc([C@H]3[C@@H](CO)N4CCCCN(C(=O)Cc5ccncc5)C[C@@H]34)cc2)c1`: 0.97 ± 0.021; for `C[C@@H]1CN([C@H](C)CO)C(=O)CCCn2cc(nn2)CO[C@@H]1CN(C)C(=O)Oc1ccc2ccccc2c1`: 1.06 ± 0.052; for `C/C=C/c1ccc([C@H]2[C@@H](CO)N3CCCCN(C(=O)Cc4cccnc4)C[C@H]23)cc1`: 1.01 ± 0.039.
The same measure for `O=C(O)[C@@H]1[C@@H](CO)[C@@H]2Cn3c(ccc(-c4cccnc4)c3=O)[C@H]1N2C(=O)Nc1cc(F)ccc1F`: 1.1 ± 0.081.
Molecule `C/C=C/c1ccc([C@H]2[C@@H](CO)N3CCCCN(C(=O)Cc4cccnc4)C[C@@H]23)cc1` came in with a viability index of 1.03 ± 0.013.
As to `CN(C)CC#Cc1ccc([C@@H]2[C@@H](CO)N3CCCCN(C(=O)Cc4ccccn4)C[C@H]23)cc1`, the viability index is 1 ± 0.092.
The same measure for `C/C=C/c1ccc([C@@H]2[C@@H]3CN(S(C)(=O)=O)C[C@H]2N3)cc1`: 1.16 ± 0.091.
The same measure for `O=C(Cc1ccccc1)N1CC2(C1)[C@H](c1ccccc1)[C@H](CO)N2Cc1cccc(Cl)c1`: 1.0745 ± 8.3e-05; for `CCC(=O)N1[C@@H]2c3ccc(C4=CCCC4)c(=O)n3C[C@H]1[C@H](CO)[C@H]2C(=O)OC`: 1.063 ± 0.0013; for `O=C(O)[C@H]1[C@H](CO)[C@H]2Cn3c(ccc(-c4ccncc4)c3=O)[C@@H]1N2S(=O)(=O)c1ccccc1F`: 1.03 ± 0.026.
`C/C=C/c1ccc([C@@H]2[C@@H]3CN(C(=O)C4CCOCC4)C[C@H]2N3)cc1` yielded a viability index of 1.06 ± 0.011.
The same measure for `O=C(Cc1ccncc1)N1CCCCN2[C@@H](CO)[C@@H](c3ccc(C#Cc4ccccc4F)cc3)[C@@H]2C1`: 0.964 ± 0.047; for `C/C=C/c1ccc([C@H]2[C@H]3CN(C(=O)Cc4cccnc4)CCCCN3[C@H]2CO)cc1`: 1.01 ± 0.074; for `O=C1CNC[C@@H]2[C@H](c3ccc(Br)cc3)[C@H](CO)N12`: 0.992 ± 0.074.
The same measure for `C/C=C/c1ccc([C@H]2[C@H](CO)N3CCCCN(C(=O)Cc4cccnc4)C[C@@H]23)cc1`: 1.04 ± 0.011; for `C[C@H](CO)N1C[C@H](C)[C@H](CN(C)C(=O)Oc2cccc3ccccc23)OCc2cnnn2CCCC1=O`: 1.05 ± 0.013; for `O=C1CNC[C@@H]2[C@@H](c3ccc(Br)cc3)[C@@H](CO)N12`: 0.965 ± 0.037.
The same measure for `O=C1CNC[C@H]2[C@H](c3ccc(Br)cc3)[C@@H](CO)N12`: 1.04 ± 0.06; for `COc1ccccc1CN1[C@@H](CO)[C@@H](c2ccccc2)C12CN(C(=O)Cc1ccccc1)C2`: 1.09 ± 0.027.
